# Measurements from article PMC4336329 (PLoS ONE, 2015).
# About 14,000 (4.5%) of roughly 310,000 compounds showed an effect of 50% or more. Effects have a minus sign here. The list shows a part of the results.
# Biological target: human ether-à-go-go-related gene (hERG) potassium channel (human, UniProt Q12809)
# Assay: primary screen, population patch clamp on CHO cells stably expressing hERG
# 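Further: peak tail current of the secondary pulse compared with the same well before compound.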
# Chain of human ether-à-go-go-related gene (hERG) potassium channel (Q12809 whole entry, looked up): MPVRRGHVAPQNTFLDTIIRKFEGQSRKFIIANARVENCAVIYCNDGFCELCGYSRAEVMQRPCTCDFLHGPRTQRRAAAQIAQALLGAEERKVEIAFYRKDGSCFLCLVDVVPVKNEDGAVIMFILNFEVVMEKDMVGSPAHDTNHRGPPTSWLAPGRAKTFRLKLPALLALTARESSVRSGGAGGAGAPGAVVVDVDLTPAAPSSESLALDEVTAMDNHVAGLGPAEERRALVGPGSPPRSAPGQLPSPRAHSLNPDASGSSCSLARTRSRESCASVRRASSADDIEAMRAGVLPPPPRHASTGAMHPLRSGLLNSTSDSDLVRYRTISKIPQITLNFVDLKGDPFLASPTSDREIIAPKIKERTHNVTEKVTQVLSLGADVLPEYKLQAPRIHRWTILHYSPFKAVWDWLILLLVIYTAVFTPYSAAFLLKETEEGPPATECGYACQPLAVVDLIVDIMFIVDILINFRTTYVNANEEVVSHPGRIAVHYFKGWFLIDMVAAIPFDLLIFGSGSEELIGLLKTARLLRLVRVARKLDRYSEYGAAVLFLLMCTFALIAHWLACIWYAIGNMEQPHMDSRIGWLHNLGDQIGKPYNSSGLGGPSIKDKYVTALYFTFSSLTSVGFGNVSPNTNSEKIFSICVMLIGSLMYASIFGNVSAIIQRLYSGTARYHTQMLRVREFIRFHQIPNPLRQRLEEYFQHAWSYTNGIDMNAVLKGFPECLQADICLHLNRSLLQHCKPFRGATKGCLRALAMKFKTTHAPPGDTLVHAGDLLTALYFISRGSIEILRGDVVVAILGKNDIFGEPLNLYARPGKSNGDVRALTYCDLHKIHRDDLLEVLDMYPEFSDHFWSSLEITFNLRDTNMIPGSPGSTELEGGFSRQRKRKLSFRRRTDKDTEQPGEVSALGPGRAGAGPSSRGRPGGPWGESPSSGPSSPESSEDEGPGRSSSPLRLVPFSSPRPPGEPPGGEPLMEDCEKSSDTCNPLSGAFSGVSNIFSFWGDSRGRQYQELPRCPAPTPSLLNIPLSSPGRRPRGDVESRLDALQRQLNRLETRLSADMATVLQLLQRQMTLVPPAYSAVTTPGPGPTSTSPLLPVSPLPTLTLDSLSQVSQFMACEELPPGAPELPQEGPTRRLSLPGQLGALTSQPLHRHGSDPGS
row,SMILES,"hERG current change (%, negative = inhibition) at 10uM"
1,COc1cc(S(=O)(=O)Nc2cccc(C)c2)ccc1N=Cc1c(C)[nH]n(-c2ccccc2)c1=O,9.66%
2,COc1ccc(-c2nn(-c3ccccc3)cc2/C=C/C(=O)N2CCOCC2)cc1OC,-20.4%
3,CCOc1ccc(-c2nc(CS(=O)(=O)CC(=O)NCc3ccc(F)cc3)c(C)o2)cc1,17.8%
4,O=C(Nc1ccc(N2CCCCC2)cc1)c1ccc([N+](=O)[O-])o1,-10.1%
5,CCn1c(C)c(C)c2cc(C(=O)N3CCN(c4ccccc4)CC3)ccc21,-3.23%
6,COc1ccc(N2CCN(c3ccc(NC(=O)c4ccc5c(c4)OCO5)cc3C#N)CC2)cc1,6.54%
7,O=C(c1cccc([N+](=O)[O-])c1)N1CCN(c2ncccn2)CC1,-8.55%
8,COC(=O)c1sc(NC(=O)COc2ccccc2)nc1C,0.918%
9,CCOc1ccc(S(=O)(=O)Nc2ccc(C(=O)NCc3ccncc3)cc2)cc1,-22.2%
10,CCNS(=O)(=O)c1ccc(NS(=O)(=O)c2cc(C)ccc2C)cc1,-1.2%
11,Cc1ccc(F)c(CNC(=O)C2CCC(=O)N(Cc3ccccn3)C2)c1F (stereo not drawn),20%
12,O=C(NCc1ccccn1)c1cccs1,12%
13,O=C(NCc1ccccc1)Nc1cccn(Cc2ccccc2F)c1=O,6.42%
14,C=CCOc1cccc(/C=N/NC(=O)CN2CCCCC2)c1,-38.4%
15,COc1cc(/C=C2/C(=N)N3OC(C)=CC3=NC2=O)ccc1OC(=O)c1ccco1,29.8%
16,O=C(N1CCOCCOc2ccccc2OCCOCC1)C(F)(F)F,6.2%
17,CCOC(=O)C1=C(COc2ccccc2)NC(=O)NC1c1cccc([N+](=O)[O-])c1 (stereo not drawn),4.42%
18,C/C(N)=C(/C#N)C(=O)CSc1ccc2c(c1)OCCO2,5.19%
19,COc1ccc(-c2cc(C(F)(F)F)nc(S(C)(=O)=O)n2)cc1,-27.1%
20,O=C(Nc1ccccc1)c1ccccc1NC(=O)C(F)(F)F,7.06%
21,CCCN1CCN(CC(=O)Nc2nc3ccccc3s2)CC1,-49.9%
22,CCOc1ccc2c(c1)C(=O)C(=O)N2CC1COc2ccccc2O1 (stereo not drawn),20.4%
23,CC(=O)Nc1ccc(SCC(=O)N(C)C2CCS(=O)(=O)C2)cc1 (stereo not drawn),8.48%

row,SMILES,"hERG current change (%, negative = inhibition) at 10uM"
1,CCN(CC)S(=O)(=O)c1cccc(-c2nn(-c3ccccc3)cc2/C=C(\C#N)C(=O)NCc2ccco2)c1,4.77%
2,COC(=O)/C=C1/S/C(=N/N=C/c2ccc(N(C)C)cc2)NC1=O,13.1%
3,O=C(c1cccc(F)c1)N1CCN(S(=O)(=O)Cc2ccccc2)CC1,6.14%
4,Cc1cc(=O)n2c3ccccc3n(CC(O)CN3CCN(CCO)CC3)c2c1C#N (stereo not drawn),-16%
5,Cc1ccccc1S(=O)(=O)Cc1ccc(C(=O)NC2CCC(C)CC2)o1 (stereo not drawn),8.03%
6,Cc1ccc(C(=O)NNC(=O)CCN2C(=O)C3CCCCC3C2=O)cc1 (stereo not drawn),-5.88%
7,CN(CCOc1ccccc1)CC(=O)Nc1cccc(Br)c1.O=C(O)C(=O)O,-3.94%
8,COc1ccc2c(C(=O)CN3CC(C)OC(C)C3)c[nH]c2c1 (stereo not drawn),15.3%
9,Cl.NC(=NCCc1ccccc1)NC(=O)c1cc(Cl)ccc1O,-2.39%
10,Cc1ccc(/C=N/c2sc3c(c2C(N)=O)CCCC3)o1,23.3%
11,CCc1ccc2nc(NC(=O)c3ccc(N4C(=O)CCC4=O)cc3)sc2c1,17.2%
12,Cn1c(-c2ccc(=O)[nH]c2)nc2ccccc21,-0.793%
13,COc1ccc(NC2CCCN(C(=O)c3ccc(OC)o3)C2)cc1 (stereo not drawn),7.3%
14,O=C(COc1ccccc1Cl)NCCNC(=O)c1ccccn1,22.6%
15,C/C=C/c1ccc(OCCOc2ccc(C=O)cc2)c(OC)c1,18.8%
16,O=[N+]([O-])c1ccc(COn2nnc3ccccc32)cc1,0.91%
17,CC(=O)N1C(C(=O)O)CSC1c1ccc(C)cc1 (stereo not drawn),9.78%
18,O=C1CC2(CCN(C(=O)c3ccc(Cl)cc3)CC2)Oc2ccccc21,-87.8%
19,O=C(C1CC(Cl)CN1S(=O)(=O)c1ccc(Cl)cc1)N1CCOCC1 (stereo not drawn),13.4%
20,CCOc1ccc(CNC(=O)c2ccc(Sc3ccc(C)cc3)c(NC(C)=O)c2)cc1,-4.85%
21,C=CCn1c(C)cc(C(=O)CN2C(=O)c3ccccc3S2(=O)=O)c1C,-3.98%
22,Cc1ccc(CNC(C)c2ccccc2)cc1.Cl (stereo not drawn),-8.59%
